Screen size: about 410,000 compounds; about 5,000 (1.2%) were called active. Inconclusive means that the source gave no clear call. Such entries were picked first, then a sample of the others. Calls follow the shape of the dose curve; as a rule, active = well fitted inhibition curve with a large enough effect; inconclusive = small, poorly fitted or top-dose-only effect; inactive = no such curve, though single readings can be large or run the other way. Where the call is inconclusive, the potency comes from a doubtful curve fit.
Test: qHTS for Inhibitors of TGF-b; also: nearly all actives have a fitted effect of over 65% in size
Details: HepG2 CAGA-GFP TGF-b/SMAD3 reporter, GFP fluorescence, 18 h, TGF-beta stimulated, 500 pg/mL final; series mostly up to 46.1 µM; activity, negative = inhibition: at the top concentration
Summary of the method: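 Inhibition was scored as loss of TGF-beta-induced (500 pg/mL final, 18 hours, 37 degrees C) GFP in HEPG2 cells carrying a CAGA-GFP reporter, in DMEM with 1% FBS. Well GFP was summed per cell; Activity was normalised to unstimulated and stimulated DMSO wells, then concentration-response fitting.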
% is scaled to controls: 0 for no effect and ±100 for the full control effect; potency is read from the fitted curve at half-maximal effect; tags tell the direction and shape of the fitted curve.

| Structure (SMILES) | Potency | activity, negative = inhibition |
| --- | --- | --- |
| COc1ccc2c(c1)c1ncn(CCc3ccccc3)c(=O)c1n2C | inconclusive: 35.5 µM [inhibitor, single point] |  |
| CC1(C)Cc2ccccc2C2=NNC(=O)C2=N1 | active: 3.16 µM |  |
| COc1ccc(CNC(=O)CCCn2ccc3cc(S(=O)(=O)N4CCCC4)ccc32)cc1 | inconclusive: 35.5 µM [inhibitor, single point] |  |
| CCCCn1c(SCc2nc3ccccc3s2)nc2ccccc2c1=O |  | inactive: -6.91% |
| O=C(NCc1ccc2c(c1)OCO2)c1ccco1 |  | inactive: 20% |
| Cn1c2ccccc2c2cc(/C=N/NC(=O)c3cc(O)cc(O)c3)ccc21 | inconclusive: 7.94 µM [inhibitor, partial curve] |  |
| O=C(O)CN1C(=O)SC(Nc2ccccc2C(=O)O)C1=O (stereo unspecified) | inconclusive: 35.5 µM [inhibitor, single point] |  |
| CCOc1ccccc1NC(=S)NC(=O)CCCOc1ccc(Cl)cc1Cl | inconclusive: 22.4 µM [inhibitor, partial curve, poor fit] |  |
| Cc1cc(C)cc(N(CC(=O)Nc2c(C)cc(C)cc2C)S(=O)(=O)c2c(C)nn(C)c2C)c1 | inconclusive: 35.5 µM [inhibitor, single point] |  |
| Cc1ccc(CNC(=O)c2ccc3c(c2)S(=O)(=O)c2ccccc2C3=O)o1 |  | inactive: -6.03% |
| CCN(CC)CCCNC(=O)c1sc2nc3n(c(=O)c2c1C)CCCCC3 |  | inactive: 3.48% |
| COc1ccccc1Cc1c(-c2ccc(F)cc2)nc2ccc(Br)cn12 | active: 10 µM |  |
| COc1ccc(-c2noc(CSc3nnc(Cc4ccccc4)n3-c3ccc(F)cc3)n2)cc1 | active: 15.8 µM |  |
| CN(C)S(=O)(=O)c1cccc(NC(=O)COc2ccc(C(=O)c3ccccc3)cc2)c1 |  | inactive: -32.8% |
| CCOC(=O)c1c(NC(=O)c2ccc(-n3cnnn3)cc2)sc2c1CCCC2 |  | inactive: 3.62% |
| COc1cc(/C=C/c2ccc3cccc(OC)c3n2)c(OC(C)=O)c([N+](=O)[O-])c1 | inconclusive: 10 µM [inhibitor, partial curve] |  |
| Cc1ccccc1OCC(=O)NCC(c1cccs1)N1CCOCC1 (stereo unspecified) | inconclusive: 35.5 µM [inhibitor, single point] |  |
| COc1ccc(Cl)cc1C(=O)CSc1nnnn1C1CCCCC1 |  | inactive: -6.68% |
| COc1ccc2oc(=Nc3cc(F)ccc3F)c(C(N)=O)cc2c1 | active: 8.91 µM |  |
| CC1c2cc3c(cc2CCN1C(=O)c1ccc(Br)cc1)OCCCO3 (stereo unspecified) | inconclusive: 20 µM [inhibitor, single point] |  |
| CC1=CC2=NC(=O)/C(=C\c3cccn3CCOc3ccccc3)C(=N)N2O1 | inconclusive: 35.5 µM [inhibitor, single point] |  |
| Cc1ccccc1NC(=O)c1cc[n+]([O-])cc1 |  | inactive: -9.66% |
| COc1ccc(CCNCC(=O)Nc2ccc(C)c(Br)c2)cc1OC | inconclusive: 35.5 µM [inhibitor, single point] |  |
| O=C(N1CCCCC1)C1(S(=O)(=O)c2ccccc2)CC=CC1 |  | inactive: 16.3% |

| Structure (SMILES) | Potency | activity, negative = inhibition |
| --- | --- | --- |
| Cc1ccc(C(=O)NCC(=O)OCC(=O)NCCNC(=O)COC(=O)CNC(=O)c2ccc(C)cc2)cc1 | inconclusive: 0.891 µM [inhibitor, full curve, poor fit] |  |
| COc1ccc(CNC(=O)CCN2C(=O)[C@@H]3Cc4ccccc4CN3C2=O)cc1 |  | inactive: 3% |
| Cc1cc(Cl)ccc1NC(=S)NCc1ccccc1Cl | inconclusive: 22.4 µM [inhibitor, single point] |  |
| CC(C)(C)C(=O)NC1(C(F)(F)F)NC(=O)N(c2ccccc2F)C1=O (stereo unspecified) | inconclusive: 5.62 µM [inhibitor, single point] |  |
| CCOC(=O)C1=C[C@@H](CC)N(S(=O)(=O)c2ccccc2)[C@H]1c1ccccc1 | inconclusive: 25.1 µM [inhibitor, single point] |  |
| CCCCN1C(=O)c2[nH]nc(-c3ccccc3O)c2C1c1ccc(OCc2ccccc2)c(OC)c1 (stereo unspecified) | inconclusive: 22.4 µM [inhibitor, single point] |  |
| O=C(NCC1OCCc2ccccc21)c1ccc(NC(=O)c2ccccc2Cl)cc1 (stereo unspecified) |  | inactive: 14.5% |
| O=C(NCC(c1ccco1)N1CCc2ccccc21)c1ccc([N+](=O)[O-])cc1 (stereo unspecified) |  | inactive: -14.4% |
| CCOC(=O)c1cccc(NC(=O)CCc2c(C)nn(-c3ccc(N4CCCCC4)nn3)c2C)c1 | inconclusive: 25.1 µM [inhibitor, single point] |  |
| Cc1oc2cc3oc(=O)c(CCC(=O)NCCCN4CCCC4=O)c(C)c3cc2c1C |  | inactive: -24.4% |
| COc1ccc(-c2nnn3c2nc(NCCc2ccc(OC)c(OC)c2)c2ccccc23)cc1 |  | inactive: -13.2% |
| CNc1nc(NCCOc2ccccc2Cl)c2sccc2n1 | inconclusive: 22.4 µM [inhibitor, single point] |  |
| O=C(Nc1ccc(Cl)c(Cl)c1)Nc1nnc(CC2=CCCCC2)s1 | inconclusive: 2.51 µM [inhibitor, partial curve, poor fit] |  |
| Cc1ccc(N(C)S(=O)(=O)c2cccc(C(=O)OCC(=O)N(C)Cc3ccccc3)c2)cc1 |  | inactive: -0.824% |
| CC(=O)c1c(C)[nH]c2ccccc2c1=O | inconclusive: 6.31 µM [inhibitor, single point] |  |
| CN(CC(=O)Nc1ccc(Cl)cc1)C(=O)c1ccc(COc2ccccc2)cc1 | inconclusive: 22.4 µM [inhibitor, single point] |  |
| COc1ccc(S(=O)(=O)Oc2cc(C(=S)N3CCOCC3)ccc2OC)cc1 | inconclusive: 11.2 µM [inhibitor, partial curve] |  |
| OC(c1cccc(Cl)c1)c1nc(-c2csc3ccccc23)cs1 (stereo unspecified) | inconclusive: 12.6 µM [inhibitor, single point] |  |
| COc1ccc(CN(C)C(=S)Nc2ccc(Cl)cc2)cc1 | inconclusive: 35.5 µM [inhibitor, single point] |  |
| COc1cc2c(c(OC)c1OC)-c1ccc(NCc3ccccc3)c(=O)cc1C(NC(C)=O)CC2 (stereo unspecified) | inconclusive: 14.1 µM [inhibitor, partial curve, poor fit] |  |
| CCc1ccc(/C=C(\C#N)C(=O)NC2CCS(=O)(=O)C2)cc1 (stereo unspecified) |  | inactive: 17.1% |
| Cc1cc(C)nc(N/N=C/c2ccccc2OCc2ccccc2)n1 | inconclusive: 12.6 µM [inhibitor, single point] |  |
| Cc1nn(-c2ccccc2)c2nc(C3CC3)cc(C(=O)Nc3cccc(F)c3)c12 | inconclusive: 35.5 µM [inhibitor, single point] |  |
| COc1cccc(C(=O)Nc2ccc3nc(N4CCOCC4)cc(C)c3c2)c1 |  | inactive: -28.9% |

| Structure (SMILES) | Potency | activity, negative = inhibition |
| --- | --- | --- |
| Cn1cccc1C(=O)OCc1ccc(C(C)(C)C)cc1 | inconclusive: 25.1 µM [inhibitor, single point] |  |
| CCOc1ccc(CNC(=O)c2ccc(CSc3nc4ccncc4n3Cc3ccc(F)cc3)cc2)cc1 | inconclusive: 7.08 µM [inhibitor, partial curve, poor fit] |  |
| C=Nc1ccc(/C=C/c2ccnc3ccccc23)cc1 |  | inactive: -10.1% |
| Cc1ccc(S(=O)(=O)/N=C2\C=C(NS(=O)(=O)c3ccccc3)C(=O)c3ccccc32)cc1 | inconclusive: 35.5 µM [inhibitor, single point] |  |
| COc1cccc(-c2cc(C(=O)Nc3cnn(Cc4ccc(Cl)cc4Cl)c3)no2)c1 |  | inactive: 10.7% |
| N/C(Cc1ccc([N+](=O)[O-])cc1)=N\OC(=O)Cc1ccccc1 | inconclusive: 3.16 µM [inhibitor, full curve, poor fit] |  |
| Cc1ccc(-c2nnc(CCC(=O)N(C)Cc3nccs3)o2)s1 |  | inactive: 5.45% |
| Cn1nc(C(C)(C)C)cc1NC(=O)Nc1cc(Cl)cc(Cl)c1 | inconclusive: 2.82 µM [inhibitor, full curve, poor fit] |  |
| COc1ccc(S(=O)(=O)N(CC(=O)Nc2ccc(S(=O)(=O)N3CCOCC3)cc2)c2ccccc2)cc1 |  | inactive: -16% |
| CCCCn1c(SCC(=O)c2cc(OC)ccc2OC)nc2cc(S(N)(=O)=O)ccc21 |  | inactive: -1.5% |
| COc1ccccc1Nc1nnc(SCC(=O)Nc2nc(-c3ccc(F)cc3)cs2)s1 | inconclusive: 2.51 µM [inhibitor, full curve, poor fit] |  |
| COC(=O)Cc1coc2cc(OC)ccc12 |  | inactive: 16.6% |
| CC(=O)Nc1ccc(Nc2nc(-c3c(C)nc4ccccn34)cs2)cc1 | inconclusive: 22.4 µM [inhibitor, single point] |  |
| Brc1ccc2nc(-c3ccco3)c(CC3CCCCC3)n2c1 | active: 11.2 µM |  |
| CC1(Cc2ccccc2C#N)C(=O)Nc2cc(-c3ccccc3Cl)ccc21 (stereo unspecified) | inconclusive: 35.5 µM [inhibitor, single point] |  |
| S=c1[nH]nc(-c2cc(-c3ccccc3)n[nH]2)n1/N=C/c1c2ccccc2cc2ccccc12 | inconclusive: 14.1 µM [inhibitor, single point] |  |
| O=C1C=C(c2cccc3c2oc2ccccc23)CCC1 | inconclusive: 14.1 µM [inhibitor, single point] |  |
| Fc1cccc(COc2ccccc2C(=S)N2CCCC2)c1 | inconclusive: 35.5 µM [inhibitor, single point] |  |
| N#Cc1ccc(OS(=O)(=O)c2ccc(-c3ccon3)s2)cc1 |  | inactive: 2.9% |
| CC(=O)Nc1ccc(C(=O)N/N=C/c2cc(Br)cc(Br)c2O)cc1 | inconclusive: 14.1 µM [inhibitor, single point] |  |
| COc1cc(NS(C)(=O)=O)ccc1Nc1c2ccccc2nc2ccccc12 | inconclusive: 35.5 µM [inhibitor, single point] |  |
| Cc1cccc[n+]1CC(=O)Nc1ccc([N+](=O)[O-])cc1 |  | inactive: -11.8% |
| Cc1ccc(CCCOC(=O)C[N+]2(C)CCCCC2)cc1 | inconclusive: 15.8 µM [inhibitor, partial curve, poor fit] |  |

From PubChem BioAssay AID588855 (National Center for Advancing Translational Sciences (NCATS), 2011)
